# Data: the supplement of paper PMC11417369
# Some of the results follow.
# Test system: PfSIP2 AP2 domain 1 (GST-tagged)
# Experiment: gcPBM binding intensity (ln(normalized median fluorescence intensity)); higher = stronger DNA binding
# Outline: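 GST-fused DNA-binding domains of P. falciparum, expressed in E. coli, were applied at about 25 μg on average for 1 h to an Agilent 4 × 180k array of primer-extended double-stranded 36-bp intergenic genomic probes and negative controls. Binding intensity is the highest Masliner-normalised natural-log median intensity across replicate spots of either probe orientation, measured with Alexa488 anti-GST antibody and a 488 nm scan.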
row,Sequence,gcPBM binding intensity (ln)
1,TTTTTTTAAAAAAACAAAAAAAAAAAAAATATAAAA [TGCATGCA_negctrl_site511],6.73
2,TATGAAAATTAAGTTTGTACACAAGTGGAAAAAAAA [XGTACX_site6129],6.85
3,TACATTTATAATAATACACACATAAATTTACATTTT [CACACA_site3463],7.11
4,AAAAAAAAAAAAAAAAAAAAAAAAAAAAAAAAAAAT [CACACA_negctrl_site882],9.05
5,TTTGTTATTTATTAGTGTACAAAAAAGCATTTCAAA [XGTACX_site8729],7.15
6,AAATTAAATAAATTTACACACTAAAAGTTACCTATA [CACACA_site6623],6.81
7,ATATAAAGAAATTAATTTTTCAACAATAAAAATATA [CACACA_negctrl_site1262],6.81
8,AATAATGTATAATGATGTACAAAAAAGGAAGACATA [XGTACX_site2474],7.25
9,ATATTTTGTAATATTTGTACATATATTATACATATA [XGTACX_site963],7.12
10,TTTTTTTTGCGTACAGTGCAAATTTATTTACTATTC,8.36
11,AAATATAATAATATATGTACATATATATATATATAT [XGTACX_site6980],9.73
12,AAAAAAATATATATATATATATATATATATATATAT [TGCATGCA_negctrl_site7],9.58
13,CGTGGGAGCGGACACACACACACACCCATATATATA [CACACA_site4340],7.57
14,TATGTATTAAATTTTACACACATGATTCTCTATATG [CACACA_site8720],6.88
15,TATACATATTATATATGTACACATATTATATGTATA [XGTACX_site5851],7.05
16,AATTTAAAAGCTTGTGGTACTTTTGCTCTTCCTTTG [XGTACX_site3148],6.64
17,TCAACAAATAAACTTTGTACATATATACAAAATATA [XGTACX_site4447],6.88
18,ATACAAAAAAGAAGGACACACAGAAGTAACATGTTA [CACACA_site3074],6.79
19,ATGAATTATATATTATGTACATATAATTAAAATATA [XGTACX_site7140],6.98
20,TTTAAAAAAAAAAAAAAAAATTAAATGAATTATTAA [CACACA_negctrl_site1121],6.49
21,TAACATGATATATAATGTACATATAAGATATTTATA [XGTACX_site4383],6.93
22,ATAACATAACATAATACACACATATAAAAAAGAAAT [CACACA_site3028],7.24
23,ATATAATATATTTTCACACATATTTTATGATGATAA [CACACA_site5614],6.95

row,Sequence,gcPBM binding intensity (ln)
1,AAAAAAAAAAAAAAAGGTACAGTAAAAAATTCCTCT [XGTACX_site5947],7.41
2,AAATTTAATTTTATATCACACATTAAATTTTAATGG [CACACA_site4251],6.9
3,TATTCTATAAATATATTTTTTTAATTTTTTATTTTA [CACACA_negctrl_site307],6.62
4,TATGTAAAAAGAGAAAAAAAAAAGAACGATAATTTC [CACACA_negctrl_site946],6.58
5,ATATAAGAATTTAAGAGTACATTCACTTCAAATTTA [XGTACX_site2115],6.94
6,AGGTGTATCATAAAATGTACATACATACATACATAA [XGTACX_site4479],7.02
7,AAAATGTGCTTTTCAGTGCAATTTTTTTTGTAATAA [GTGCAC_site9566],7.56
8,TTGTAATTCATTCAAATATAAAATAAATAAATATGA [CACACA_negctrl_site349],6.59
9,TATTATTATTTTTTATGTACTAACGACAAAAATATT [XGTACX_site252],7.19
10,AAGCTACACATAGATTATTATTAATTTAATGTATAT [CACACA_negctrl_site548],6.82
11,TACGTGAAATTATATACACACATAAATATGTCTGTA [CACACA_site3122],6.83
12,ACAAGCTTTCATAAGGTGCAATGATTTAACAAAAAA [GTGCAC_site9726],10.1
13,AATTATTAGCGTGGTGTGCACAAAATTATGGACACA,8.73
14,TATAAAAATAATATTACACACATGTAAAATGTCGGT [CACACA_site3264],6.86
15,ACACATGACATCCGTTGTACAATCATCATAAAAATG [XGTACX_site5397],7.32
16,AGCATTTATGAAAAATGTACACACATCAAATGCTTA [XGTACX_site8749],6.96
17,AGCAACCCCCTAGCTACACACATATAGATATATATA [CACACA_site951],7.58
18,TTTCCCTTAAATTAATGTACATAAATTGAAAATACC [XGTACX_site1602],7.33
19,TATATATTATACACGTGTACACATTATAACAATATA [XGTACX_site7799],7.4
20,TAAAATTTTTTTGTTTGTACATATATATATATAATA [XGTACX_site5609],7.27
21,AAAAAAAAAAAACACACACACAAAAAAAAATATATA [CACACA_site1105],6.94
22,AAAAAAATAAATAAATACATACATATATATATGTAT [GTGCAC_negctrl_site510],6.85
23,TTGCCCCAGGAGTTCACACACATAATAGATTGTCAC [CACACA_site726],7.01

row,Sequence,gcPBM binding intensity (ln)
1,ATAATCCTTAAACACACACACACACTAATAAATAAA [CACACA_site8052],7.03
2,AAAAGTTATAGACACACACACATATAAATATAGATT [CACACA_site6617],6.96
3,ATAAAAATTAAAGAATGTACACATATAATATATGTA [XGTACX_site8735],6.86
4,TTGTTTCCTTAATATTCACACACATATATATAATAT [CACACA_site8553],7.56
5,TATAAATGTATACAAGTGCATATTATTCACACATAA,8.35
6,TTTTAAAAAAATAAATAAATAGAAAAAAAAAATAAA [TGCATGCA_negctrl_site579],6.69
7,GGATATATTTTATGTACACACATATATAACGGATAT [CACACA_site4847],7.21
8,TATTATGACTTAAGTTGTACTGTTGAAAGAAGAAAA [XGTACX_site2985],7.02
9,CGTATAAATAAATACACACACATATAAATATGTAAA [CACACA_site6236],7.1
10,TAATATATTGTAGATGCATGCATTAACTATTACAAA [TGCATGCA_site190],6.81
11,TATCAATGGAAAATATATATTTGTATATATGTAATA [XGTACX_negctrl_site257],7.04
12,GAAATTATTATATAAACACACATTTATTTTATTTTA [CACACA_site1957],6.85
13,GTATTATACCATAATGCATGTTAACTTCAAAAGAAA [TGCATGCA_site839],7
14,TGTGTATACTTGTGTATACCAAATTAAAGACGCTTT [CACACA_negctrl_site1359],6.74
15,AAAAAATAAAAAAGGTGGTCATGTCACAAATACTTT [XGTACX_site7454],6.78
16,TAAAAGTGATATGTTCGTACGTATTTATATGTAATA [XGTACX_site211],7.06
17,GTATATATATATATATATATATATATATATATATAT [CACACA_negctrl_site609],9.29
18,TCTCCATCTTATGAGACATGCACTTTTTATTTAATA [TGCATGCA_site121],9.24
19,TTGTGTAAATGTTAAGTGCATTTGGTAAAATATAAA [GTGCAC_site9699],8.01
20,AAAAAAAAAAAAAAAACACACATACCCATATATTTT [CACACA_site6013],7.49
21,ATGATATGCAATTTAGTGCATAACAAAATTGGTATA,8.45
22,TTTTTCTTTTTTTGGGGTACAGGGAAATCTATATTT [XGTACX_site7025],7.26
23,TCTTAATTTTTGAAGGTACACACTAATATATTAAAT [CACACA_site1191],7.11

row,Sequence,gcPBM binding intensity (ln)
1,CCATAAAAAGGTACATGTACAAAAAGCAAAAATATG [XGTACX_site5543],7.29
2,ATATTTTTCCAACATCGTACATTATGAGTCAAAATT [XGTACX_site993],7.33
3,CAATTAAAGATATGAACACACATGTGAACTTTCTAT [CACACA_site7796],6.7
4,AATTTAATTTTTTCGTGTACTTATATAGGAGGTTTT [XGTACX_site8310],6.97
5,TTTCTTATCAACCTTTTTTTTTTTTTTTTATTCTTA [TGCATGCA_negctrl_site162],6.44
6,CCCATATTATAGGTGTGTACATAAAAGTATATATAA [XGTACX_site3629],7.65
7,AGAAGAAATATGTAAAAAATTTTATATTCACACACA [GTGCAC_negctrl_site441],7.13
8,TTTATATATAATGTTGCATGTCAAATTTGTATATGG [TGCATGCA_site246],7.27
9,TGTAGACATTAATGTAGTACAATATATATATATATT [XGTACX_site8608],7.24
10,TGTTCTTATACTAATAGTACTTTTAGGTACTATAAA [XGTACX_site2954],6.95
11,AACTCATCTTATAATTGTACATATTTATAAAAAGTA [XGTACX_site6522],7.12
12,TGTAGAAATGGGTGCACACACATATATAATATATAT [CACACA_site2507],12.3
13,AAAAAAAAAAAAAAAAAAAAAAAAAAAAAATATATA [GTGCAC_negctrl_site6],8.8
14,TTAGGGATGCTGAAATGTACACATTTAAATTATATA [XGTACX_site3000],6.99
15,AATGTAAAACTAATATGTACATATCTCTAAAGAAAT [XGTACX_site8429],6.96
16,CGTACTAACATAAAGACACACACCACATATAATAAA [CACACA_site3603],7.14
17,ATTGTCTTCCTTCTGGTGCGATGTATAGGTAAAGAT,8.79
18,TGATAAGAAAAAGACTTTTCCTTCTTACTTTCTATG [CACACA_negctrl_site782],6.44
19,AATAATGTTTTTATATCACACACAAATATTAAATGA [CACACA_site8074],7.05
20,CAAAATAAATAATTTGGTACACATAAAAAAAAAAAA [XGTACX_site8380],6.92
